About 65 (0.1%) of roughly 45,000 compounds were called active. Calls follow the shape of the dose curve; as a rule, active = well fitted activation curve with a large enough effect; inconclusive = small, poorly fitted or top-dose-only effect; inactive = no such curve, though single readings can be large or run the other way. The list shows a part of the results.
Target: Galactocerebrosidase (Homo sapiens) (UniProt P54803)
Assay: A Novel Cell-Based Assay to Identify Small Molecules for B -Galactocerebrosidase; also: 0% is about no effect; nearly all actives have a fitted effect of over 65% in size
Conditions: 145M-Twi-hGALC-G270D cells (Twitcher mouse brain line with human GALC G270D), HMU-beta-Gal fluorescence, 48 h; series mostly up to 57.5 µM; activation: at the top concentration
Summary of the method: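 Fluorescence readout: HMU-β-gal cleavage by mutant GALC (0.1 mM final, citrate/phosphate pH 5.2 with 1 mg/mL taurocholate), stopped with carbonate/bicarbonate plus Triton X-100. Cells: murine Twitcher 145M-Twi expressing human G270D GALC; qHTS for activators.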

Chain of UniProt P54803 (P54803 whole entry, looked up): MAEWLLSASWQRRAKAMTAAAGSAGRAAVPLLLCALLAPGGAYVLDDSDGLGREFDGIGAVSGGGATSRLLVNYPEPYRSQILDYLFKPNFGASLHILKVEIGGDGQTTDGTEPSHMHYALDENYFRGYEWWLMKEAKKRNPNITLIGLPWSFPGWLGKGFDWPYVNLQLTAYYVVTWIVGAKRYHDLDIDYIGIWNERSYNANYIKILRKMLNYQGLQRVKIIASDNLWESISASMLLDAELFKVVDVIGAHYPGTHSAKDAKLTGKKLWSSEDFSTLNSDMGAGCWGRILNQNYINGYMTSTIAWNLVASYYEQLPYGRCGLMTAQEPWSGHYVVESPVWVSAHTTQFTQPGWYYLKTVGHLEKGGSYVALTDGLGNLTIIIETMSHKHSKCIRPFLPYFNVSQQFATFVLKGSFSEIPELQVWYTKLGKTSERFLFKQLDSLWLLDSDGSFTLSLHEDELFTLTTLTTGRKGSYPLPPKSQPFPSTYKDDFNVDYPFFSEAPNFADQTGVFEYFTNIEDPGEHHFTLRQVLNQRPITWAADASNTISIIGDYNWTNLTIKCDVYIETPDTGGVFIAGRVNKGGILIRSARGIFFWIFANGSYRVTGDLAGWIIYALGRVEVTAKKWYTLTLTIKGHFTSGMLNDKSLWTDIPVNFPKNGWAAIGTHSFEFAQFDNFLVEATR

activation, inactive:
Cc1c(C(=O)N(Cc2ccccc2F)C2CCS(=O)(=O)C2)oc2ccc(F)cc12 (stereo not drawn) -17%, Cc1ccc(-n2c(=O)c3c(C)c(C(=O)N(C)C)sc3n(CC(=O)C(C)(C)C)c2=O)cc1C -14.1%, O=c1cc(-c2ccccc2)n2c(SCc3ccccc3)nnc2[nH]1 -13.9%, CCc1ccc(-n2nc(C)c3c(C)cc(=O)n(CC(=O)N4CCCc5ccccc54)c32)cc1 -9.88%, Cc1cc2c(cc1CC(=O)c1sccc1S(=O)(=O)Nc1onc(C)c1Cl)OCO2 -16.3%, CN(c1ncnc2onc(-c3cccc(Cl)c3)c12)C1CCCCC1 -6.68%, CCc1ccc(-n2nc3cc(C)c(NC(=O)c4cccc5ccccc45)cc3n2)cc1 -10.7%, O=C(O)Cc1ccc(-c2ccccc2)cc1 -12.3%, COc1ccc(N2CC(NC(=O)COc3ccccc3)CC2=O)cc1OC (stereo not drawn) -0.929%, Cn1c(=O)c2c(SCC(=O)NCc3ccco3)nc(-c3ccccc3)nc2n(C)c1=O -15.6%, CCOC(=O)c1cnc2ccc(OC)cc2c1NCCc1ccccc1 -29.9%, Cn1c(=O)c2c(nc(NCc3ccccc3)n2Cc2ccccc2)n(C)c1=O -0.224%, CC1CCn2c(nc3cc(C(=O)NCCc4ccc(Cl)cc4)ccc32)C1 (stereo not drawn) -7.77%, Cc1ccc(-n2nc(CO)c(C(=O)NCc3ccccn3)n2)cc1C -4.61%, CC(C)c1cccc(C(C)C)c1NC1=NS(=O)(=O)c2ccccc21 -10.7%, COc1ccccc1NC(=O)NCCN1CCN(c2cccc(Cl)c2)CC1 -15.8%, O=C(Cc1ccccc1)Nc1cccc(-c2cn3cccnc3n2)c1 -5.61%, Cc1ccc(NC(=O)C2CCN(c3nc4ccccc4[nH]3)CC2)c(C)c1 5.69%, COC(=O)c1cnc(N2CCN(c3ccccc3F)CC2)c2ccccc12 25.9%, COc1ccc(OC)c(NC(=O)c2c(NCc3cccs3)sc3c2CCCC3)c1 -18.9%, Cc1ccc(Cn2c(=O)n(CCCC(=O)NCc3ccccc3Cl)c(=O)c3ccccc32)cc1 16.6%, Cc1cccc(N2CCN(C(=O)CCc3c(C)nc4ncnn4c3C)CC2)c1C -13.5%, CCc1ccccc1NC(=O)c1cc(S(=O)(=O)N2CCCC2)cn1C -8.3%, COCCN1C(=O)c2[nH]nc(-c3cc(C)ccc3O)c2C1c1ccc(C(C)C)cc1 (stereo not drawn) -20.3%, CCOc1ccccc1NC(=O)c1cc2c(=O)oc3ccccc3c2s1 -12.3%, Cc1cncn1CCc1nc2c3ccccc3nc(SCC(=O)Nc3cccc(Cl)c3)n2n1 -17.3%, O=C(c1ccc(CSc2nc3ccncc3n2Cc2cccc(F)c2)cc1)N1CCCCCC1 -3.36%, CN(CC(=O)Nc1cccc(C(F)(F)F)c1)S(=O)(=O)c1cccs1 -1.44%, COc1ccc(OC)c(NC(=O)CN2C(=O)COc3ccc(S(=O)(=O)NC4CCCC4)cc32)c1 0.843%, Cc1ccc(CNS(=O)(=O)c2cc3c(cc2C)NC(=O)CO3)cc1 -8.8%, Cc1cccc(C)c1-n1ncc(C(=O)N2CCN(c3ccccc3)CC2)c1C1CCN(C(=O)OC(C)(C)C)CC1 13.1%, COC(=O)C(C)Sc1ncnc2c1c(-c1ccccc1)cn2-c1ccc(F)cc1 (stereo not drawn) -5.65%, CCOc1ccc(S(=O)(=O)Nc2ccc3c(c2)N(C(C)=O)CCC3)cc1 -8.04%, O=C(Cn1c(-c2cccs2)cc2ccccc21)NCCc1ccc(Cl)cc1 3.18%, COCCCNC(=O)CSc1nc2cc(OC)c(OC)cc2c2nc(-c3ccccc3)nn12 -13.6%, CC1CCCN(C(=O)c2cc3c(Cl)nc4ccccc4c3s2)C1 (stereo not drawn) -11.1%, O=C(c1ccco1)c1cn(CCOc2ccc(F)cc2)c2ccccc12 -18.6%, Cc1ccc(OCc2nc3ccccc3n2CCOc2ccc(Cl)cc2)cc1 -2.58%, CS(=O)(=O)CCC(C(=O)Nc1cccc(C(F)(F)F)c1)N1Cc2ccccc2C1=O (stereo not drawn) -4.38%, CC1CCCCN1c1nnc(NC(=O)Nc2ccccc2F)s1 (stereo not drawn) -2.46%, Cc1ccc(/C=C/c2nc3ccccc3[nH]2)cc1 -13.5%, CC(C)COc1ccc(C(=O)N(Cc2ccc(N(C)C)cc2)Cc2ccco2)cc1 -16.4%, CCc1ccc(NC(=O)CCS(=O)(=O)c2ccc3c(c2)n(C)c(=O)c(=O)n3C)cc1 2.12%, CCC(Cn1nnc2ccccc2c1=O)NC(=O)Nc1ccc(C)c(C)c1 (stereo not drawn) 10.2%, Cc1c(Cn2ccnc2)c2ccccc2n1CCC(=O)O -8.01%, Cc1ccc(-c2nnc(Nc3cccc(O)c3)c3ccccc23)cc1S(=O)(=O)N1CCN(C)CC1 -16.1%, Cc1ccccc1OCC(O)Cn1c(=N)n(CCN2CCCCC2)c2ccccc21 (stereo not drawn) -15.9%, Cc1ccc(-c2nc(SCC(=O)NCc3ccco3)c3c(=O)n(C)c(=O)n(C)c3n2)cc1 -11.8%, Cc1ccc(Nc2nnc(-c3ccc(C)c(S(=O)(=O)NCc4nc5ccccc5[nH]4)c3)c3ccccc23)cc1 -11%, CCc1cccc(CC)c1NC(=O)CN1C(=O)C(=O)c2ccccc21 -16.7%, CC(C)c1ccc(NC(=O)Cn2c(=O)n(CCc3ccccc3)c(=O)c3ccccc32)cc1 3.22%, CCc1nc(-c2cc(S(=O)(=O)N3CCN(c4ccccc4OC)CC3)ccc2OC)no1 -9.59%, CCOC(=O)Cn1c(=O)c2c(nc3n2CCN3c2ccc(CC)cc2)n(C)c1=O -9.48%, COc1cc(Cl)c(C)cc1Nc1ncnc2c1nc1n2CCCC1 -11.7%, COc1cc(NS(=O)(=O)c2ccc3[nH]c4c(c3c2)CCCCCC4)cc(OC)c1 -10.2%, Cc1nc2nc(SCC(=O)NCc3ccccc3Cl)nn2c(C)c1Cc1ccccc1 -7.92%, CCc1ccc(NC(=O)C(CC)n2c(=O)c(C(F)(F)F)nc3ccccc32)cc1 (stereo not drawn) -7.08%, Cc1ccc(NC(=O)CC(C)S(=O)(=O)c2ccc3c(c2)NC(=O)CO3)cc1Cl (stereo not drawn) -9.72%, COc1cccc(NS(=O)(=O)c2ccc(-c3cc(C)no3)s2)c1 -16%, Cc1ccc(Nc2nn3c(=O)c4cc5c(cc4nc3s2)OCO5)cc1Cl -16.5%, CCOC(=O)c1cc(-c2ccccc2)n(-c2cccc(C(=O)Nc3ccc(OCC)cc3)c2)c1C -4.87%, COc1ccc(Cl)cc1NC(=O)CN1C(=O)COc2ccc(S(=O)(=O)NC3CCCC3)cc21 -12.1%, Cc1ccc(-c2nnc(Nc3ccc(O)cc3)c3ccccc23)cc1S(=O)(=O)N1CCOCC1 -18.4%, CCCOc1cccc(C(=O)N(Cc2ccc(C)o2)C2CCS(=O)(=O)C2)c1 (stereo not drawn) -15%, CN(C(=O)CSc1cn(CC(=O)N2CCOCC2)c2ccccc12)c1ccccc1 -13.9%, CCCCN(CC)CCNC(=O)Cn1cc2c(n1)-c1c(oc(C(=O)N3CCCC3)c1C)CC2 -10.6%, COc1cccc(Cn2c(=O)n(Cc3ccco3)c(=O)c3oc4ccccc4c32)c1 19.3%, CC(=O)N1CCCc2cc(S(=O)(=O)N3CCC(C(=O)NCc4cccc(C)c4)CC3)ccc21 -13.8%, COC(=O)c1ccccc1NC(=O)c1c(NC(=O)c2ccco2)sc2c1CCC(C(C)(C)C)C2 (stereo not drawn) 21.1%, COCCNc1sc(S(=O)(=O)c2ccc(C)cc2)nc1S(=O)(=O)c1ccc(C)cc1 -10.4%, CC(=O)Nc1ccc(NC(=O)CSc2nccn2C)cc1 -21%, CCOC(=O)c1cc2c(=O)n3ccccc3nc2n(CC(C)C)c1=NC(=O)c1c(-c2c(F)cccc2Cl)noc1C -13.3%, CCCN(C(=O)c1noc2c1COc1ccc(C)cc1-2)c1ccc(Cl)c(Cl)c1 -30.7%, O=C(CCS(=O)(=O)c1nc(-c2ccc3c(c2)OCO3)cc(C(F)(F)F)n1)Nc1ccccc1F -26%, CCN(CC)C(=O)c1sc2c(c1C)c(=O)n(Cc1ccccc1)c(=O)n2Cc1ccc(Cl)cc1 -11.3%, CCc1cccc(-n2nnc(-c3nc(-c4ccccc4Cl)no3)c2N)c1 -18.5%, CCN(C(=O)CCn1cnc2onc(-c3ccc(F)cc3)c2c1=O)c1ccc(OC)cc1 -6.24%, COc1ccc(Nc2nc3ccccc3c3nnc(C)n23)cc1Cl -8.93%, Cc1cc(C)c(NC(=O)Cn2c(=O)n(Cc3ccco3)c(=O)c3ccc(C(=O)NC4CCCC4)cc32)c(C)c1 -13.4%, O=C(NCC(c1cccnc1)N1CCc2ccccc2C1)C(=O)Nc1ccc(Cl)cc1 (stereo not drawn) -17.6%, Cc1ccc(-c2noc(CSc3nnc(Cc4ccccc4)n3-c3cccc(C)c3)n2)cc1 5.98%, Cn1nnc2c(NCCc3ccccc3)ncnc21 -1.13%, Cc1ccc(NC(=O)CSc2cn(CC(=O)N3CCCCCC3)c3ccccc23)cc1 -1.66%, CCCCCCCCCCCCCCCCCCOCC(O)CO (stereo not drawn) -10.5%, CN1Cc2cc(C(=O)N3CCC(C4CCNCC4)CC3)ccc2NC(CC(=O)O)C1=O (stereo not drawn) -15.5%, Cc1cccc(N2CCN(C(=O)c3cnn(-c4cccc(Cl)c4C)c3C3CCNCC3)CC2)c1C -19.6%, CCOCCCNC(=O)C(c1ccc(C)cc1)N(Cc1cccs1)C(=O)c1ccc(NC(C)=O)cc1 (stereo not drawn) -12.5%, CC(=O)c1cccc(NC(=O)c2c(N3CCCC3=O)c3cc(F)ccc3n2C)c1 -13.8%, COc1ccccc1NC(=O)c1c(NC(=O)c2ccco2)sc2c1CCC(C(C)(C)C)C2 (stereo not drawn) -7.11%, CCSc1ncc(Cl)c(C(=O)Nc2c(C(=O)c3ccc(C)c(F)c3)oc3ccccc23)n1 -14.1%, C[N+](C)(CCOc1ccccc1)Cc1cccs1 5.98%, C[N+]1(C)CCC(OC(=O)C(O)(c2ccccc2)C2CCCC2)C1 (stereo not drawn) -9.14%, CCCc1nc2ccccc2n2c(-c3ccc(C)cc3)c3c(=O)n(C)c(=O)n(C)c3c12 -8.48%, CC(C)c1ccc(NC(=O)c2cccc3c2C(=O)N(C2CCCCC2)C3)cc1 -9.3%, Cc1ccc2c(c1)N(CC(=O)NCc1ccccc1Br)C(=O)c1cccnc1O2 -6.22%, CCOC(=O)c1cc(NC(=O)c2ccc(C)cc2)c(=O)n2c1oc1ccc(Cl)cc12 12%, O=c1oc2ccc(Br)cc2cc1-c1csc(-c2ccccc2)n1 -8.48%, Cc1ccc(N2CC(NC(=O)c3ccc(S(=O)(=O)N4CCCCC4)cc3)CC2=O)cc1 (stereo not drawn) -2.8%

Source: PubChem BioAssay AID1159614 (National Center for Advancing Translational Sciences (NCATS), 2016)
